Test results reported in the supplement of paper PMC12217912.
Some of the results follow. The full chains were built here from the parent and the listed change. Inactive controls read about 0.05.

B1: TEV protease; numbered along this chain (parent)
chain: MGESLFKGPRDYNPISSSICHLTNESDGHTTSLYGIGFGPFIITNKHLFRRNNGTLVVQSLHGVFKVKDTTTLQQHLVDGRDMIIIRMPKDFPPFPQKLKFREPQREERICLVTTNFQTKSMSSMVSDTSCTFPSGDGIFWKHWIQTKDGQCGSPLVSTRDGFIVGIHSASNFTNTNNYFTSVPKNFMELLTNQEAQQWVSGWRLNADSVLWGGHKVFMVKPEEPFQPVKEATQL

Variants of: B1
Test: raw area under fraction-flipped curve 0-4 h after induction (AUC4h, not background-subtracted), DNA-recorder readout of cleavage of the substrate (dimensionless); higher = more cleavage of the substrate by the protease variant
Conditions: temperature: 34 °C; time window: 0-4 h after rhamnose induction
Description: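 In vivo DNA recorder in E. coli TOP10(DE3) ΔrhaA at 34 °C. Each TEVp single-site mutant (parent TEVp 0) is paired with a single-site variant of the 7-mer TEVs (canonical ENLYFQ|S). The substrate sits between flexible linkers in a Bxb1-sfGFP-TEVs-SsrA fusion, so cleavage stabilises Bxb1 and speeds flipping of a recombination array, read by NGS. The value is the raw area under the fraction-flipped curve over 0-4 h after rhamnose induction (AUC4h), with ≥20 reads per time point. It is not background-subtracted; inactive controls average about 0.047.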
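Further: Bxb1 expression induced with 0.2% (w/v) L-rhamnose at OD600 near 0.5, cultures sampled hourly, flipped fraction per protease–substrate barcode pair counted by paired-end Illumina sequencing.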

| Variant | area with substrate ECLYFQS | area with substrate EELYFQS | area with substrate EFLYFQS | area with substrate EKLYFQS | area with substrate ESLYFQS | area with substrate EVLYFQS | area with substrate EMLYFQS | area with substrate EPLYFQS | area with substrate EQLYFQS | area with substrate ERLYFQS | area with substrate EGLYFQS | area with substrate ETLYFQS | area with substrate EWLYFQS | area with substrate EHLYFQS | area with substrate EDLYFQS | area with substrate EILYFQS | area with substrate ELLYFQS | area with substrate EYLYFQS |
| --- | --- | --- | --- | --- | --- | --- | --- | --- | --- | --- | --- | --- | --- | --- | --- | --- | --- | --- |
| MGESLFKGPRDYNPISSSICHLTNESDGHTTSLYGIGFGPFIITNKHLFRRNNGTLVVQSLHGVFKVKDTTTLQQHLVDGRDMIIIRMPKDFPPFPQKLKFYEPQREERICLVTTNFQTKSMSSMVSDTSCTFPSGDGIFWKHWIQTKDGQCGSPLVSTRDGFIVGIHSASNFTNTNNYFTSVPKNFMELLTNQEAQQWVSGWRLNADSVLWGGHKVFMVKPEEPFQPVKEATQL [R102Y] | 0.0415 | 0.0369 | 0.0485 | 0.0422 | 0.0261 | 0.0504 | – | – | – | – | – | – | – | – | – | – | – | – |
| MGESLFKGPRDYNPISSSICHLTNESDGHTTSLYGIGFGPFIITNKHLFRRNNGTLVVQSLHGVFKVKDTTTLQQHLVDGRDMIIIRMPKDFPPFPQKLKFREPQREERICLVTTNFQTKSMSSMVSDTSCTFPSGDGIFWKHWIQTKDGQCGSPLVSTRDGHIVGIHSASNFTNTNNYFTSVPKNFMELLTNQEAQQWVSGWRLNADSVLWGGHKVFMVKPEEPFQPVKEATQL [F163H] | 0.112 | 0.0955 | – | – | 0.133 | – | 0.146 | 0.11 | 0.146 | 0.124 | – | – | – | – | – | – | – | – |
| MGESLFKGPRDYNPISSSICHLTNESDGHTTSLYGIGFGPFIITNKHLFRRNNGTLVVQSLHGVFKVKDTTTLQQHLVDGRDMIIIRMPKDFPPFPQKLKFREPQREERICLVTTNFQTKSMSSMVSDTSCTFPSGDGIFWKHWIQTKDGQCGSPLVSTRDGFIVGIHSASNFYNTNNYFTSVPKNFMELLTNQEAQQWVSGWRLNADSVLWGGHKVFMVKPEEPFQPVKEATQL [T174Y] | 0.107 | – | 0.104 | 0.114 | – | 0.0999 | 0.136 | – | 0.108 | – | 0.09 | 0.108 | 0.0891 | – | – | – | – | – |
| MGESLFKGPRDYNPISSSICHLTNESDGHTTSLYGIGFGPFIITNKHLFRRNNGTLVVQSLHGVFKVKDTTTLQQHLVDGRDMIIIRMPKDFPPFPQKLKFREPQREERICLVTTNFQTKSMSSMVSDTSCTFPSGDGIFWKHWIQTKDGQCGSPLVSTRDGFIVGIHSASNFTNTNNYFTSVPKNFMELLTNQEAQQWVSGWRLNADSVLWGGHCVFMVKPEEPFQPVKEATQL [K216C] | 0.0972 | – | – | – | – | – | – | 0.0804 | – | 0.117 | – | – | – | 0.0782 | – | – | – | – |
| MGESLFKGPRDYNPISSSICHLTNESDGHTTSLYGIGFGPFIITNKHLFRRNNGTLVVQSLHGVFKVKDTTTLQQHLVDGRDMIIIRMPKDFPPFPQKLKFREPQREERICLVTTNFQTKSMSSMVSDTSCTGPSGDGIFWKHWIQTKDGQCGSPLVSTRDGFIVGIHSASNFTNTNNYFTSVPKNFMELLTNQEAQQWVSGWRLNADSVLWGGHKVFMVKPEEPFQPVKEATQL [F133G] | 0.0802 | 0.0591 | 0.0637 | – | 0.0865 | 0.111 | 0.0957 | 0.0632 | – | – | 0.102 | 0.0368 | 0.0897 | 0.113 | 0.121 | 0.111 | – | – |
| MGESLFKGPRDYNPISSSICHLTNESDGHTTSLYGIGFGPFIITNKHLFRRNNGTLVVQSLHGVFKVKDTTTLQQHLVDGRDMIIIRMPKDFPPFPQKLKFREPQREERICLVTTNFQTKSMSSMVSDTSCTFPSGDGIFWKHWIQTKDGQCGSPLVSTRDGFIVGIHSASNFTNTNNYFTSVPKNFMELLTNQEAQQWVSGWRLNADSVLWGGHKVFFVKPEEPFQPVKEATQL [M219F] | 0.129 | 0.122 | 0.141 | 0.0964 | 0.116 | 0.123 | – | – | 0.134 | 0.118 | 0.116 | 0.112 | 0.116 | – | – | – | 0.094 | – |
| MGESLFKGPRDYNPISSSICHLTNESDGHTTSLYGIGFGPFIITNNHLFRRNNGTLVVQSLHGVFKVKDTTTLQQHLVDGRDMIIIRMPKDFPPFPQKLKFREPQREERICLVTTNFQTKSMSSMVSDTSCTFPSGDGIFWKHWIQTKDGQCGSPLVSTRDGFIVGIHSASNFTNTNNYFTSVPKNFMELLTNQEAQQWVSGWRLNADSVLWGGHKVFMVKPEEPFQPVKEATQL [K46N] | 0.0769 | 0.0616 | – | 0.0855 | 0.0607 | – | 0.0747 | 0.0944 | 0.0744 | 0.0626 | 0.0697 | – | – | – | – | 0.0602 | – | 0.056 |
| MGESLFKGPRDYNPISSSICHLTNESDGHTTSLYGIGFGPFIITNKHLFRRNNGTLVVQSLHGVFKVKDTTTLQQHLVDGRDMIIIRMPKDFPPFPQKLKFREPQREERICLVTTNFQTKSMSSMVSDTSCTFPSGDGIFWKHWIQTKDGQCGSPLVSTRDGFIVGIHSASNFTNTNNYFTSVPKVFMELLTNQEAQQWVSGWRLNADSVLWGGHKVFMVKPEEPFQPVKEATQL [N186V] | 0.123 | 0.108 | – | 0.0733 | – | 0.0753 | – | 0.0802 | – | 0.0915 | 0.0779 | 0.0953 | – | 0.0938 | – | 0.1 | 0.0571 | – |
| MGESLFKGPRDYNPISSSICHLTNESDGHTTSLYGIGFGPFIITNKHLFRRNNGTLVVQSLHGVFKVKDTTTLQQHLVDARDMIIIRMPKDFPPFPQKLKFREPQREERICLVTTNFQTKSMSSMVSDTSCTFPSGDGIFWKHWIQTKDGQCGSPLVSTRDGFIVGIHSASNFTNTNNYFTSVPKNFMELLTNQEAQQWVSGWRLNADSVLWGGHKVFMVKPEEPFQPVKEATQL [G80A] | 0.0952 | 0.087 | – | 0.117 | 0.071 | – | – | – | 0.0815 | 0.108 | 0.107 | 0.0983 | 0.101 | – | 0.114 | 0.0959 | 0.09 | 0.116 |
| MGESLFKGPRDYNPISSSICHLTNESDGHTTSLYGIGFGPFIITNKHLFRRNNGTLVVQSLHGVFKVKDTTTLQQHLVDGRDMIIIRMPKDFPPFPQKLKFREPQREERICLVTTNLQTKSMSSMVSDTSCTFPSGDGIFWKHWIQTKDGQCGSPLVSTRDGFIVGIHSASNFTNTNNYFTSVPKNFMELLTNQEAQQWVSGWRLNADSVLWGGHKVFMVKPEEPFQPVKEATQL [F117L] | 0.0773 | 0.12 | – | – | – | 0.11 | 0.118 | 0.168 | – | – | 0.11 | 0.132 | – | – | – | – | 0.097 | – |
| MGESLFKGPRDYNPISSSICHLTNESDGHTTSLYGIGFGPFIITNKHLFRRNNGTLVVQSLHGVFKVKDTTTLQQHLVDGRDMIIIRMPKDFPPFPQKLKFREPQREERICLVTTNFQTKSMSSMVSDTSCTFPSKDGIFWKHWIQTKDGQCGSPLVSTRDGFIVGIHSASNFTNTNNYFTSVPKNFMELLTNQEAQQWVSGWRLNADSVLWGGHKVFMVKPEEPFQPVKEATQL [G136K] | 0.0749 | 0.121 | – | – | 0.1 | 0.0727 | – | – | – | – | 0.112 | 0.145 | 0.0898 | – | 0.0915 | 0.102 | – | 0.0836 |
